Measurements published in the supplement of paper PMC11741623.
Some of the results follow. Interaction screen of human proteins with wild-type SARS-CoV-2 proteins by split-DHFR complementation in yeast, 1 µg/mL methotrexate. Value = fitness of the pair (three or more lineages) minus that of the viral protein without a human partner, on a scale set by negative (0) and fused positive (1) controls, mean of up to three cultures; higher = more likely to interact. Active = false discovery rate below 0.05 (one-sided t-test) in at least one culture. Nearly all pairs are not hits, and differences among them are mostly noise (correlation between cultures about 0.3); most hits were seen in one culture only. Human sequences are the Swiss-Prot entries looked up by gene name; the clone may be another isoform. NSP2 values were corrected by the authors for a growth advantage. Listed are human proteins with a hit and a random twelfth of the others.

Columns and labels:
Test in all cases: yeast fitness gain over the viral ORF with no human partner (scaled fitness); higher = more likely to interact
SARS-CoV-2 NSP15 = target: SARS-CoV-2 NSP15
Procedure: (§1)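 Split mouse DHFR complementation in pooled diploid yeast: human ORFeome clones carry one fragment and viral ORFs the other; barcoded lineages compete in 1 µg/mL methotrexate and fitness is read by barcode sequencing in up to three cultures.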

SARS-CoV-2 NSP5 = target: SARS-CoV-2 NSP5
Procedure: as §1

SARS-CoV-2 NSP6 = target: SARS-CoV-2 NSP6
Procedure: as §1

SARS-CoV-2 NSP7 = target: SARS-CoV-2 NSP7
Procedure: as §1

SARS-CoV-2 NSP9 = target: SARS-CoV-2 NSP9
Procedure: as §1

SARS-CoV-2 ORF10 = target: SARS-CoV-2 ORF10
Procedure: as §1

SARS-CoV-2 ORF8 = target: SARS-CoV-2 ORF8
Procedure: as §1

SARS-CoV-2 S = target: SARS-CoV-2 S
Procedure: as §1

SARS-CoV-2 NSP2 = target: SARS-CoV-2 NSP2
Procedure: as §1

SARS-CoV-2 ORF3B = target: SARS-CoV-2 ORF3B
Procedure: as §1

SARS-CoV-2 ORF6 = target: SARS-CoV-2 ORF6
Procedure: as §1

SARS-CoV-2 ORF9B = target: SARS-CoV-2 ORF9B
Procedure: as §1

SARS-CoV-2 NSP14 = target: SARS-CoV-2 NSP14
Procedure: as §1

SARS-CoV-2 NSP16 = target: SARS-CoV-2 NSP16
Procedure: as §1

SARS-CoV-2 NSP4 = target: SARS-CoV-2 NSP4
Procedure: as §1

Measured: yeast fitness gain

B1: HSF2, Q03933 (protein)
chain: MKQSSNVPAFLSKLWTLVEETHTNEFITWSQNGQSFLVLDEQRFAKEILPKYFKHNNMASFVRQLNMYGFRKVVHIDSGIVKQERDGPVEFQHPYFKQGQDDLLENIKRKVSSSKPEENKIRQEDLTKIISSAQKVQIKQETIESRLSELKSENESLWKEVSELRAKHAQQQQVIRKIVQFIVTLVQNNQLVSLKRKRPLLLNTNGAQKKNLFQHIVKEPTDNHHHKVPHSRTEGLKPRERISDDIIIYDVTDDNADEENIPVIPETNEDVISDPSNCSQYPDIVIVEDDNEDEYAPVIQSGEQNEPARESLSSGSDGSSPLMSSAVQLNGSSSLTSEDPVTMMDSILNDNINLLGKVELLDYLDSIDCSLEDFQAMLSGRQFSIDPDLLVDLFTSSVQMNPTDYINNTKSENKGLETTKNNVVQPVSEEGRKSKSKPDKQLIQYTAFPLLAFLDGNPASSVEQASTTASSEVLSSVDKPIEVDELLDSSLDPEPTQSKLVRLEPLTEAEASEATLFYLCELAPAPLDSDMPLLDS
inactive: SARS-CoV-2 NSP15 = -0.223 | SARS-CoV-2 NSP5 = -0.00666 | SARS-CoV-2 NSP6 = 0.0222 | SARS-CoV-2 NSP7 = 0.056 | SARS-CoV-2 NSP9 = -0.0367 | SARS-CoV-2 ORF10 = 0.01 | SARS-CoV-2 ORF8 = -0.14 | SARS-CoV-2 S -0.019

B2: GNG3, P63215 (protein)
chain: MKGETPVNSTMSIGQARKMVEQLKIEASLCRIKVSKAAADLMTYCDAHACEDPLITPVPTSENPFREKKFFCALL
inactive: SARS-CoV-2 NSP2 = -0.131 | SARS-CoV-2 ORF3B -0.118 | SARS-CoV-2 ORF6 = -0.158 | SARS-CoV-2 ORF9B -0.124

B3: EXTL3, O43909 (protein)
chain: MTGYTMLRNGGAGNGGQTCMLRWSNRIRLTWLSFTLFVILVFFPLIAHYYLTTLDEADEAGKRIFGPRVGNELCEVKHVLDLCRIRESVSEELLQLEAKRQELNSEIAKLNLKIEACKKSIENAKQDLLQLKNVISQTEHSYKELMAQNQPKLSLPIRLLPEKDDAGLPPPKATRGCRLHNCFDYSRCPLTSGFPVYVYDSDQFVFGSYLDPLVKQAFQATARANVYVTENADIACLYVILVGEMQEPVVLRPAELEKQLYSLPHWRTDGHNHVIINLSRKSDTQNLLYNVSTGRAMVAQSTFYTVQYRPGFDLVVSPLVHAMSEPNFMEIPPQVPVKRKYLFTFQGEKIESLRSSLQEARSFEEEMEGDPPADYDDRIIATLKAVQDSKLDQVLVEFTCKNQPKPSLPTEWALCGEREDRLELLKLSTFALIITPGDPRLVISSGCATRLFEALEVGAVPVVLGEQVQLPYQDMLQWNEAALVVPKPRVTEVHFLLRSLSDSDLLAMRRQGRFLWETYFSTADSIFNTVLAMIRTRIQIPAAPIREEAAAEIPHRSGKAAGTDPNMADNGDLDLGPVETEPPYASPRYLRNFTLTVTDFYRSWNCAPGPFHLFPHTPFDPVLPSEAKFLGSGTGFRPIGGGAGGSGKEFQAALGGNVPREQFTVVMLTYEREEVLMNSLERLNGLPYLNKVVVVWNSPKLPSEDLLWPDIGVPIMVVRTEKNSLNNRFLPWNEIETEAILSIDDDAHLRHDEIMFGFRVWREARDRIVGFPGRYHAWDIPHQSWLYNSNYSCELSMVLTGAAFFHKYYAYLYSYVMPQAIRDMVDEYINCEDIAMNFLVSHITRKPPIKVTSRWTFRCPGCPQALSHDDSHFHERHKCINFFVKVYGYMPLLYTQFRVDSVLFKTRLPHDKTKCFKFI
inactive: SARS-CoV-2 NSP2 = 0.0565

B4: TMEM59, Q9BXS4 (protein)
chain: MAAPKGSLWVRTQLGLPPLLLLTMALAGGSGTASAEAFDSVLGDTASCHRACQLTYPLHTYPKEEELYACQRGCRLFSICQFVDDGIDLNRTKLECESACTEAYSQSDEQYACHLGCQNQLPFAELRQEQLMSLMPKMHLLFPLTLVRSFWSDMMDSAQSFITSSWTFYLQADDGKIVIFQSKPEIQYAPHLEQEPTNLRESSLSKMSYLQMRNSQAHRNFLEDGESDGFLRCLSLNSGWILTTTLVLSVMVLLWICCATVATAVEQYVPSEKLSIYGDLEFMNEQKLNRYPASSLVVVRSKTEDHEEAGPLPTKVNLAHSEI
inactive: SARS-CoV-2 NSP14 = 0.0802

B5: AKR1C3, P42330 (protein)
chain: MDSKHQCVKLNDGHFMPVLGFGTYAPPEVPRSKALEVTKLAIEAGFRHIDSAHLYNNEEQVGLAIRSKIADGSVKREDIFYTSKLWSTFHRPELVRPALENSLKKAQLDYVDLYLIHSPMSLKPGEELSPTDENGKVIFDIVDLCTTWEAMEKCKDAGLAKSIGVSNFNRRQLEMILNKPGLKYKPVCNQVECHPYFNRSKLLDFCKSKDIVLVAYSALGSQRDKRWVDPNSPVLLEDPVLCALAKKHKRTPALIALRYQLQRGVVVLAKSYNEQRIRQNVQVFEFQLTAEDMKAIDGLDRNLHYFNSDSFASHPNYPYSDEY
inactive: SARS-CoV-2 NSP15 = -0.0243 | SARS-CoV-2 NSP16 = -0.0326 | SARS-CoV-2 NSP4 = -0.362 | SARS-CoV-2 NSP6 = 0.0396 | SARS-CoV-2 NSP7 = 0.0149

B6: OR52N5, Q8NH56 (protein)
chain: MPLFNSLCWFPTIHVTPPSFILNGIPGLERVHVWISLPLCTMYIIFLVGNLGLVYLIYYEESLHHPMYFFFGHALSLIDLLTCTTTLPNALCIFWFSLKEINFNACLAQMFFVHGFTGVESGVLMLMALDRYVAICYPLRYATTLTNPIIAKAELATFLRGVLLMIPFPFLVKRLPFCQSNIISHTYCDHMSVVKLSCASIKVNVIYGLMVALLIGVFDICCISLSYTLILKAAISLSSSDARQKAFSTCTAHISAIIITYVPAFFTFFAHRFGGHTIPPSLHIIVANLYLLLPPTLNPIVYGVKTKQIRKSVIKFFQGDKGAG
inactive: SARS-CoV-2 NSP2 = -0.417 | SARS-CoV-2 ORF6 = -0.0563
